Results from the supplement of paper PMC11348887.
Where a name gives a salt, the structure may show the parent alone. Some of the results follow. No stated cut-off is given here; in the data, active = -2 or less and inactive = the rest. Single values are uncertain, as repeats are few or missing.

system: hPSC-derived cortical neurons (WA09); experiment: nuclei number (viability) z-score; higher = more surviving cells; conditions: 5 µM; treatment: days 7-14 after plating, readout day 21
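Further: nuclei counted from DAPI counterstain by automated high-content image analysis, four fields per well at ×20 in 384-well plates, with sequential b-score then z-score normalization.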

SMILES	nuclei number (z-score)
NC(=O)NO [Hydroxyurea]	inactive: 0.0804
Clc1ccc(COC(Cn2ccnc2)c2ccc(Cl)cc2Cl)cc1 (stereo not drawn) [Econazole nitrate]	active: -2.38
CC(CCc1ccc(O)cc1)NCC(O)c1ccc(O)cc1 (stereo not drawn) [Ractopamine HCl]	inactive: -0.107
COc1cc2c(cc1OC)CN(CCc1ccc(NC(=O)c3cccc4c(=O)c5cccc(OC)c5[nH]c34)cc1)CC2	active: -5.39
Cc1c(C)c2c(c(C)c1O)CC[C@@](C)(CCC[C@H](C)CCC[C@H](C)CCCC(C)C)O2 [Vitamin E]	inactive: 0.356
CCN(CCCc1ccccc1)CCCc1ccccc1 [Alverine Citrate]	inactive: -1.45
Cc1cccc(Oc2cnc(=O)[nH]c2)c1	inactive: 0.093
CCc1cc(/C(C)=N/OCc2ccc(C3CCCCC3)c(C(F)(F)F)c2)ccc1CN1CC(C(=O)O)C1 [BAF312 (Siponimod)]	inactive: 0.77
Cc1cc(CS(=O)(=O)c2ccccc2)cc(OCc2ccc(CN3CCC[C@@H]3CO)cc2)c1	inactive: -0.267
CC[C@]1(O)C[C@@H]2CN(CCc3c([nH]c4ccccc34)[C@@](C(=O)OC)(c3cc4c(cc3OC)N(C)[C@H]3[C@@](O)(C(=O)OC)[C@H](OC(C)=O)[C@]5(CC)C=CCN6CC[C@]43[C@@H]65)C2)C1 [Vinblastine sulfate]	active: -7.23
Cn1cnc(N)c2ncnc1-2 [3-Methyladenine]	inactive: -0.055
O=C(O)c1cc(O)c(O)c(O)c1 [Gallic acid]	inactive: 1.16
CCN(CC)C(=O)N1CCN(C)CC1 [Diethylcarbamazine citrate]	inactive: -0.174
O=C(c1ccccc1)c1ccc2nc(NC(=O)c3csc(C4CCN(c5ncnc6ccsc56)CC4)n3)[nH]c2c1	inactive: -0.291
CC(CN(C)C)CN1c2ccccc2CCc2ccccc21 (stereo not drawn) [Trimipramine Maleate]	inactive: -0.582
Cn1c(N2CCCCS2(=O)=O)nc(C(=O)NCc2ccc(F)cc2)c(O)c1=O	inactive: 0.862
OC(CCN1CCCC1)(c1ccccc1)C1CCCCC1 (stereo not drawn) [Procyclidine HCl]	inactive: 0.722
C[N+](C)(C)C[C@H](O)CC(=O)[O-] [L-carnitine]	inactive: 1.87
C[N+](C)(C)CC(O)CC(=O)[O-] (racemic) [DL-Carnitine HCl]	active: -2.34
CC(=O)NC(CC(C)C)C(=O)O (stereo not drawn) [Acetylleucine]	inactive: 0.181
CCS(=O)(=O)N1CCN(c2ccc(Nc3ncc(C(N)=O)c(NC4CC4)n3)cc2)CC1	inactive: 1.34
C=C1CC[C@H](O)C/C1=C/C=C1\CCC[C@]2(C)[C@@H]([C@H](C)/C=C/[C@H](C)C(C)C)CC[C@@H]12 [Vitamin D2]	inactive: 0.238
Nc1nc(N)c2nc(-c3ccccc3)c(N)nc2n1 [Triamterene]	inactive: 0.182

SMILES	nuclei number (z-score)
Cc1ccc(C(=O)N(CCCN)[C@@H](c2oc3cc(Cl)ccc3c(=O)c2Cc2ccccc2)C(C)C)cc1	active: -8.19
C=CC[N+]1([C@H]2C[C@H]3[C@@H]4CC[C@H]5C[C@H](O)[C@@H](N6CCOCC6)C[C@]5(C)[C@H]4CC[C@]3(C)[C@H]2OC(C)=O)CCCC1 [Rocuronium Bromide]	inactive: 0.786
Cc1ccc(C(=O)Cn2c3c(sc2=N)CCCC3)cc1 [Pifithrin-_ (PFT_)]	inactive: 0.521
CC(C)(C)NC(=O)[C@H]1CC[C@H]2[C@@H]3CC[C@H]4NC(=O)C=C[C@]4(C)[C@H]3CC[C@]12C [Finasteride]	inactive: 1
COc1ccc(CCC(=O)c2c(O)cc(O[C@@H]3O[C@H](CO)[C@@H](O)[C@H](O)[C@H]3O[C@@H]3O[C@@H](C)[C@H](O)[C@@H](O)[C@H]3O)cc2O)cc1O [Neohesperidin Dihydrochalcone (Nhdc)]	inactive: 3.11
CC(C)(C)CC(C)(C)c1ccc(OCCOCC[N+](C)(C)Cc2ccccc2)cc1 [Benzethonium Chloride]	active: -4.54
O=[N+]([O-])c1cn2c(n1)OC[C@@H](OCc1ccc(OC(F)(F)F)cc1)C2	inactive: 0.444
Cn1nnc2c(C(N)=O)ncn2c1=O [Temozolomide]	inactive: 0.0117
COc1ccc(CCC(=O)Nc2nc3ccc(Cl)cc3s2)cc1OC	inactive: 0.0976
C=C1C(=O)O[C@H]2[C@H]1CC/C(C)=C/CC[C@@]1(C)O[C@@H]21 [(-)-Parthenolide]	inactive: -0.55
CCCCOc1ccc(C(=O)CCN2CCCCC2)cc1 [Dyclonine HCl]	inactive: 0.52
CC(=O)OCC(=O)[C@@]1(O)CC[C@H]2[C@@H]3CCC4=CC(=O)C=C[C@]4(C)[C@H]3[C@@H](O)C[C@@]21C [Prednisolone Acetate]	inactive: 0.559
COc1ccc(CNc2nc(N3CCC[C@H]3CO)ncc2C(=O)NCc2ncccn2)cc1Cl [Avanafil]	inactive: -0.764
COC(=O)N[C@H](C(=O)N1CC2(CC2)C[C@H]1c1nc(-c2ccc3c(c2)C(F)(F)c2cc(-c4ccc5[nH]c([C@@H]6[C@H]7CC[C@H](C7)N6C(=O)[C@@H](NC(=O)OC)C(C)C)nc5c4)ccc2-3)c[nH]1)C(C)C [Ledipasvir (GS5885)]	inactive: 0.944
CN1CCN(C(=O)c2cc3cc(Cl)ccc3[nH]2)CC1	inactive: -0.225
OC[C@@H](O)CN1CCN(c2ccccc2)CC1 [Levodropropizine]	inactive: 0.17
N#CC1(c2ccc(NC(=O)c3cccnc3NCc3ccncc3)cc2)CCCC1 [Apatinib]	inactive: -0.209
CC(ONC(=O)c1cc(C(F)(F)F)cc(C(F)(F)F)c1)C(=O)Nc1ccc(Cl)cc1 (stereo not drawn)	inactive: -0.128
CC[C@H](c1ccc(O)cc1)[C@@H](CC)c1ccc(O)cc1 [Hexestrol]	inactive: 1.91
Cc1c(Nc2ncccc2C(=O)O)cccc1C(F)(F)F [Flunixin Meglumin]	inactive: -0.858
NCCc1ccc(O)c(O)c1 [Dopamine HCl]	inactive: -0.334
Cn1cnc2c(F)c(Nc3ccc(Br)cc3Cl)c(C(=O)NOCCO)cc21 [Selumetinib (AZD6244)]	inactive: 0.217
Nc1nc(N)c2nc(-c3cccc(O)c3)c(-c3cccc(O)c3)nc2n1	inactive: 0.155

SMILES	nuclei number (z-score)
C[C@H](CS)C(=O)N1CCC[C@H]1C(=O)O [Captopril]	inactive: -0.14
CCOC(=O)c1c2c3c(cccc3[nH]c1=O)C(=O)c1ccccc1-2	inactive: -1.46
CN(Cc1cc(Br)cc(Br)c1N)C1CCCCC1 [Bromhexine HCl]	inactive: -0.595
FC(F)(F)Oc1ccc2nc(-c3ccc(OCCOCCOc4ccc(-c5nc6ccc(OC(F)(F)F)cc6[nH]5)nc4)cn3)[nH]c2c1	inactive: -1.65
C=CCNC1=C2C[C@@H](C)C[C@H](OC)[C@H](O)[C@@H](C)/C=C(\C)[C@H](OC(N)=O)[C@@H](OC)/C=C\C=C(/C)C(=O)NC(=CC1=O)C2=O [17-AAG (Tanespimycin)]	inactive: 1.22
CCC(C)C(NC(=O)C(C(C)CC)N(C)C(C)=O)C(=O)NC(C(=O)NC(CC(C)C)C(=O)C1(C)CO1)C(C)O (stereo not drawn) [Epoxomicin]	active: -7.37
Cc1cccc(N(C)C(=S)Oc2ccc3ccccc3c2)c1 [Tolnaftate]	inactive: -1.16
O=c1[nH]c(=O)n([C@H]2C[C@H](O)[C@@H](CO)O2)cc1I [Idoxuridine]	inactive: 0.394
CN1CCN(c2ccc3nc(-c4c(N)c5c(F)cccc5[nH]c4=O)[nH]c3c2)CC1 [Dovitinib (TKI-258_ CHIR-258)]	inactive: -1.28
CN1CCN(c2ccc3nc(-c4c(N)c5c(F)cccc5[nH]c4=O)[nH]c3c2)CC1 [Dovitinib (TKI258) Lactate]	active: -5.19
CN1CCN(c2ccc3nc(-c4c(N)c5c(F)cccc5[nH]c4=O)[nH]c3c2)CC1 [Dovitinib (TKI-258) Dilactic Acid]	active: -7.78
CCCCc1oc2ccccc2c1C(=O)c1cc(I)c(OCCN(CC)CC)c(I)c1 [Amiodarone HCl]	inactive: -0.941
O=C(O)c1cccnc1 [Nicotinic Acid]	inactive: 0.843
COc1cc2c(NC3CCN(CC4CCCCC4)CC3)nc(N3CCCN(C(C)C)CC3)nc2cc1OCCCN1CCCCC1	active: -5.04
COc1ccc(-c2ccc3cc(C(=O)O)ccc3c2)cc1C12CC3CC(CC(C3)C1)C2 [Adapalene]	inactive: 0.0314
CCN1CCCC1CNC(=O)c1cc(S(N)(=O)=O)ccc1OC (stereo not drawn) [Sulpiride]	inactive: -0.225
CC1(C)C=C(CN2C/C(=C\c3ccc(F)cc3)C(=O)/C(=C/c3ccc(F)cc3)C2)C(C)(C)N1O	inactive: -0.0464
NNC(=O)c1ccncc1 [Isoniazid]	inactive: 2.53
O=C(O)CCCN1CCC(O[C@@H](c2ccc(Cl)cc2)c2ccccn2)CC1 [Bepotastine Besilate]	inactive: -0.198
O=C(Nc1ncc(SCCN2CCCC2)s1)[C@]1(c2ccc(S(=O)(=O)C3CC3)cc2)C[C@H]1C1CCCCC1	active: -8.67
C[C@H]1C[C@H]2[C@@H]3CCC4=CC(=O)C=C[C@]4(C)[C@H]3C(=O)C[C@]2(C)[C@@]1(O)C(=O)CO [Meprednisone]	inactive: 0.716
CCC(=O)OCC(=O)[C@@]1(OC(=O)CC)[C@@H](C)C[C@H]2[C@@H]3CCC4=CC(=O)C=C[C@]4(C)[C@@]3(F)[C@@H](O)C[C@@]21C [Betamethasone Dipropionate]	inactive: 0.534
